Some of the results follow.
What follows are compounds tested on T1, C. trachomatis L2/434/Bu expressing GFP (CTL2-GFP). Conditions: total inclusion area; 28.5 h, 10 µM; inhibitor.
T1 construct: L2/434/Bu GFP intracellular growth in HeLa cells
Design: species or system HeLa; C. trachomatis total inclusion area by high-content imaging, normalised to DMSO
Method in brief: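 Post-fluorescence-read fixation, DNA staining with Hoechst and high-content imaging; GFP inclusion area and number per well, and nuclei counts, used as proxies for bacterial growth and host viability.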
Cc1ccc2c(C)c(C(=O)Nc3sc4c(c3C(=O)NCc3ccco3)CCC4)oc2c1 [CBK267662] was tested, and the “% of control remaining” value was 117.104.
With O=C(NO)Nc1cc(Cl)cc(Cl)c1 [CBK016430] the “% of control remaining” value was 35.8061.
With CC(=O)NC(O)C(=O)c1cccs1 (centres unmarked) [CBK027756] the “% of control remaining” value was 82.5835.
For Cn1c(=O)cc(Oc2ccc(F)cc2)c2ccccc21 [CBK281451], the “% of control remaining” value was 102.111.
In the case of Cc1cccc(CN(CC(C)(C)CN)C(=O)NC(C)c2cccc3ccccc23)n1 (centres unmarked) [CBK002423C], the “% of control remaining” value is reported as 90.4408.
In the case of CCOCN(C(=O)Cn1c(C(C)O)nc2ccccc21)c1c(C)cccc1CC (centres unmarked) [CBK297722], the “% of control remaining” value is reported as 96.2092.
In the case of CC1(C)CC(=O)c2cnc3ncnn3c2C1 [CBK007345], the “% of control remaining” value is reported as 90.231.
In the case of O=C1NC(=O)C(CCCCN2CCC(Cc3ccccc3)CC2)N1 (centres unmarked) [CBK126435], the “% of control remaining” value is reported as 100.175.
With CCCN1CCC(NC(=O)c2cc(COc3cccc(F)c3)[nH]n2)CC1 [CBK306753] the “% of control remaining” value was 73.2259.
In the case of Cc1nc(COc2ccccc2)nc(O)c1Cl [CBK057810], the “% of control remaining” value is reported as 76.1999.
With Cc1ccc(S(=O)(=O)Nc2ccc(Nc3cc(-c4cc(C(F)(F)F)cc(C(F)(F)F)c4)ncn3)cc2)cc1 [CBK090968] the “% of control remaining” value was 127.133.
In the case of Cc1csc(N2CCN(C(=O)CCc3nc(C(C)C)no3)CC2)n1 [CBK305341], the “% of control remaining” value is reported as 64.891.
For Cc1nc(C2CCN(Cc3ccccc3)C2)c2ccccn12 (centres unmarked) [CBK282111], the “% of control remaining” value was 106.699.
With O=C(O)C(Cc1c[nH]cn1)N1C(=O)C2C3C=CC(C3)C2C1=O (centres unmarked) [CBK286705] the “% of control remaining” value was 79.9564.
With Cc1nnc(SCCCCSc2nnc(C)n2N)n1N [CBK265686] the “% of control remaining” value was 80.0709.
Cc1ccc(-c2cc(C(F)(F)F)n3ncc(C(=O)NCc4c(C)nn(C)c4C)c3n2)cc1 [CBK293956] was tested, and the “% of control remaining” value was 79.7792.
With Cc1nc2ncnn2c(C)c1CCC(=O)Nc1cccc(CCc2ccncc2)c1 [CBK285557] the “% of control remaining” value was 82.3916.
With CC(C)CNc1nc(-c2ccc(F)cc2)cnc1N [CBK063815] the “% of control remaining” value was 83.1913.
In the case of Cc1nc2c(c(=O)[nH]1)CN(Cc1cn(C(C)C)c3ccccc13)CC2 [CBK284014], the “% of control remaining” value is reported as 107.111.
In the case of Cc1ccn2cc(-c3ccc4c(c3)CC(C)N4S(C)(=O)=O)nc2c1 (centres unmarked) [CBK285183], the “% of control remaining” value is reported as 107.552.
In the case of Cc1ccc(C(=O)Nc2nnn(C)n2)c(Cl)c1 [CBK287856], the “% of control remaining” value is reported as 111.538.
With Oc1ccc(-c2oncc2-c2ccccc2)c(O)c1 [CBK288228] the “% of control remaining” value was 79.1144.
For O=C(Cc1ccccc1)N1CCN(CCCc2ccccc2)CC1 [CBK263451G], the “% of control remaining” value was 100.573.
In the case of O=C(NC1CCCC1)c1ccnc2ccccc12 [CBK200237], the “% of control remaining” value is reported as 93.7398.
COC1C(O)C(CO)OC1n1cc(I)c(N)nc1=O (centres unmarked) [CBK201296] was tested, and the “% of control remaining” value was 103.734.
CCCC/C=C/c1cncc(NCc2ccc(OC)cc2)n1 [CBK037933] was tested, and the “% of control remaining” value was 128.292.
With Cc1ccc(-n2nc(C(=O)NC3(C#N)CCSC3)cc2C)cc1 (centres unmarked) [CBK306403] the “% of control remaining” value was 111.179.
For Cc1cc(N(C)CCOc2ccccc2F)nc(N)n1 [CBK305969], the “% of control remaining” value was 35.699.
For COCCN(Cc1ccccc1C)C(=O)C1CCc2nn(C)c(=O)n2C1 (centres unmarked) [CBK306934], the “% of control remaining” value was 81.6.
With NCCCNC(=O)c1cc2ccccc2[nH]1 [CBK267639] the “% of control remaining” value was 90.019.
In the case of CC(C)(C)c1cc(CN(Cc2cc(C(C)(C)C)c(O)c(C(C)(C)C)c2)C2CCCCC2)cc(C(C)(C)C)c1O [CBK261996], the “% of control remaining” value is reported as 81.6582.
In the case of CCN(CC)C(=O)C1CCCN(C(=O)Nc2ccc3c(c2)OCCO3)C1 (centres unmarked) [CBK156135], the “% of control remaining” value is reported as 93.1003.
For O=C(O)c1ccc(CN2C(=O)c3ccc(C(=O)O)cc3C2=O)cc1 [CBK262823], the “% of control remaining” value was 99.944.
With COc1ccccc1-c1ccc(CN2CCC(NC(C)=O)(c3ccc(F)cc3)CC2)cc1 [CBK286349] the “% of control remaining” value was 92.1876.
With CCOC(=O)N1CCN(S(=O)(=O)c2ccc3c(c2)oc(=O)n3C)CC1 [CBK304667] the “% of control remaining” value was 37.64.
In the case of CC(C)(Oc1ccc(F)cc1)C(=O)N1CCC(C(=O)NCCc2ccccc2)C1 (centres unmarked) [CBK285702], the “% of control remaining” value is reported as 102.713.
In the case of Cc1c(CNc2nnc(C(C)(C)C)o2)cnn1C [CBK306439], the “% of control remaining” value is reported as 68.5598.
With CCc1nn(CC(=O)NCC2CC2)c(=O)c2cc3ccsc3n12 [CBK284129] the “% of control remaining” value was 85.9717.
CN1CCN(c2cnn(CCCOc3ccccc3)c(=O)c2)CC1 [CBK307203] was tested, and the “% of control remaining” value was 106.877.
Cc1nccn1-c1ccc(NC(=O)c2ccn(C(F)F)n2)cc1 [CBK281410] was tested, and the “% of control remaining” value was 84.7755.
For CC(=O)N1CCCC(c2nc(-c3ccncc3)ncc2-c2ccccc2)C1 (centres unmarked) [CBK291110], the “% of control remaining” value was 124.247.
With Cc1cc(C(=O)Nc2nnc(Cc3ccccc3)s2)c2ccccc2n1 [CBK295607] the “% of control remaining” value was 108.791.
For CCOc1ccc(-c2cn(C(=O)Nc3ccccc3)nc2N)cc1 [CBK267317], the “% of control remaining” value was 110.727.
In the case of COc1cccc(OCC(O)CN2CCN(Cc3ccccc3)CC2)c1 (centres unmarked) [CBK074856C], the “% of control remaining” value is reported as 88.4178.
With Fc1c(CN2CCOCC2)cccc1CN1CCOCC1 [CBK085967] the “% of control remaining” value was 96.7591.
In the case of CC(NC(=O)CC(F)(F)F)c1nc(-c2ccncc2)cs1 (centres unmarked) [CBK306370], the “% of control remaining” value is reported as 89.1167.
COc1ccc(OC)c(C(C)NC(=O)C2CCN(CCc3cccs3)CC2)c1 (centres unmarked) [CBK148766] was tested, and the “% of control remaining” value was 99.1947.
O=C(Nc1ccccc1OC1CCNCC1)c1ccccc1 [CBK050238T] was tested, and the “% of control remaining” value was 85.5684.
In the case of CC(=O)Nc1ccc(C2=NC3SC(c4ccc(NC(C)=O)cc4)=NC3S2)cc1 (centres unmarked) [CBK019799], the “% of control remaining” value is reported as 101.586.
For c1ccc(C(NCc2cnc(C3CCC3)s2)C2CCCC2)nc1 (centres unmarked) [CBK304022], the “% of control remaining” value was 51.0343.
CC1CCCN(CC(O)c2ccc3c(c2)CCCN3C(=O)C2CC2)C1 (centres unmarked) [CBK282136] was tested, and the “% of control remaining” value was 82.6745.
With Cc1c(Cl)c([N+](=O)[O-])nn1CCCC(=O)Nc1cc(Br)ccc1O [CBK268875] the “% of control remaining” value was 95.1726.
With CC[C@H](Cn1nc(-c2cccs2)ccc1=O)NC(=O)C(C)C [CBK284296] the “% of control remaining” value was 79.6374.
For N#CCCn1cc(C(=O)Nc2ccc(C(=O)O)cc2)c(-c2cc3ccccc3o2)n1 [CBK267866], the “% of control remaining” value was 109.437.
For CCN(CC)CCCNC(=O)N1CCN(Cc2ccccc2)CC1 [CBK155655], the “% of control remaining” value was 96.3358.
In the case of CCOc1ccc(C(N)CC(=O)O)cc1 (centres unmarked) [CBK262933C], the “% of control remaining” value is reported as 82.956.
For CCN1CCN(c2ccc(NC(=O)c3cccnc3)cc2Cl)CC1 [CBK266629C], the “% of control remaining” value was 113.492.
For Cc1cc(C)cc(Oc2coc3c(CN4CCOCC4)c(O)ccc3c2=O)c1 [CBK263908], the “% of control remaining” value was 110.868.
For O=C(CCCOc1ccc(Cl)cc1Cl)NO [CBK288436], the “% of control remaining” value was 88.4142.
For CCCNc1nccnc1-c1ccccc1F [CBK037231], the “% of control remaining” value was 113.298.
O=C(NCC1COc2ccccc2O1)c1ccc2[nH]ccc2c1 (centres unmarked) [CBK149054] was tested, and the “% of control remaining” value was 85.2194.
For COc1ccccc1C(NC(=O)C1CCN(CCc2c[nH]c3ccccc23)CC1)c1ccccn1 (centres unmarked) [CBK147923], the “% of control remaining” value was 97.2621.
For COc1ccc2c(c1)CC(=O)NC21CCN(C(=O)NC(C)C)CC1 [CBK047261], the “% of control remaining” value was 97.1955.
For NC(=O)c1ccc(NC(=O)N2CCN(CCc3ccccc3)CC2)cc1 [CBK158924], the “% of control remaining” value was 96.4145.
With COc1ccc(-c2cc(C(=O)Nc3ccc(CCO)cc3)cnc2-c2cccc(C)c2)cn1 [CBK037461] the “% of control remaining” value was 111.698.
Cc1cc(Cl)c(S(=O)(=O)N2CCCC2)cc1OCC(=O)NC1CCCCC1 [CBK266781] was tested, and the “% of control remaining” value was 96.7781.
CC(NC(=O)c1ncoc1-c1ccccc1)c1ccccn1 (centres unmarked) [CBK283889] was tested, and the “% of control remaining” value was 98.3836.
With COc1cccc2sc(Nc3nc4c(s3)C(=O)CC(C)(C)C4)nc12 [CBK287467] the “% of control remaining” value was 64.1502.
In the case of CN(C)S(=O)(=O)N(C)c1ccc(C(=O)O)cc1 [CBK287244], the “% of control remaining” value is reported as 84.1591.
For Cc1ccc(CN2CCC3(CCCNC3=O)CC2)cc1 [CBK284822], the “% of control remaining” value was 94.503.
With O=C(c1cc(-c2ccc(Cl)cc2)[nH]n1)N1CCNCC1 [CBK116548] the “% of control remaining” value was 55.2469.
For CCCC1CCCN(Cc2nnnn2-c2ccc(S(C)(=O)=O)cc2)C1 (centres unmarked) [CBK304142], the “% of control remaining” value was 57.6993.
With CCn1c(CN2CCCC2c2nc(N(C)C)ncc2-c2ccccc2)nc2ccccc21 (centres unmarked) [CBK286070] the “% of control remaining” value was 73.2615.
With CCOC(=O)N1COC[C@@H]1C(=O)O [CBK010379] the “% of control remaining” value was 27.0811.
In the case of O=C(O)c1cc(S(=O)(=O)N2CCCCC2)ccc1O [CBK286595], the “% of control remaining” value is reported as 63.9548.
With CCOC(=O)c1ccc(-n2c(CCC(=O)O)ccc2-c2cccs2)cc1O [CBK266015] the “% of control remaining” value was 73.2018.
C/C(=N/Nc1nc[nH]n1)c1ccc(Cl)c(Cl)c1 [CBK028722] was tested, and the “% of control remaining” value was 25.38.
For CCCCSc1cc(C)nc2ncnn12 [CBK021443], the “% of control remaining” value was 110.346.
For CCc1ccc(CN2CCN(C(=O)c3ccncc3)CC2)cc1 [CBK301211G], the “% of control remaining” value was 100.462.
COc1cc(C=CC(=O)O)ccc1OCC(=O)N1CCN(CC(=O)NC(C)(C)C)CC1 [CBK296987] was tested, and the “% of control remaining” value was 82.1747.
O=C(c1ccc(N2CC=CCC2)nc1)N1CCC(N2CCOCC2)CC1 [CBK307334] was tested, and the “% of control remaining” value was 98.5115.
In the case of CN(C)CCNC(=O)c1cccc(Oc2ccccc2)c1 [CBK270310], the “% of control remaining” value is reported as 85.4326.
In the case of CC(=O)N1C[C@@H](c2ccsc2)[C@@H]2CN(Cc3ccccc3)CC[C@@H]21 [CBK284585], the “% of control remaining” value is reported as 82.6257.

From article PMC12040169 (PLOS Biology, 2025)
